Assay in all cases: Primary Screen for Target Class Profiling of Small Molecule Inhibitors of Methyltransferases
Experiment [1] addresses Glycine N-methyltransferase (Homo sapiens) (UniProt Q14749). Particulars: purified enzyme, MTase-Glo SAH luminescence; measured here: GNMT inhibition; at 40 µM; stronger effect = lower value. An excerpt: (§1) PI: Matthew D. Hall Ph.D. and Quinlin M. Hanson Ph.D.
(§2) National Center for Advancing Translational Sciences (NCATS)
(§3) National Institute of Health (NIH), Rockville, MD
(§4) Target class profiling (TCP) is a chemical biology approach amenable to investigating understudied biological targets. TCP is achieved by developing a generalizable assay platform and applying it to screen a curated set of compound libraries against representative members of a target class. Small molecule methyltransferases (SMMTase) are a subclass of methyltransferase that act on metabolites to modulate signaling pathways, metabolize xenobiotics, or balance the available methyl pool. We screened four curated libraries totaling 27,574 unique compounds against the SMMTases nicotinamide N-methyltransferase (NNMT), phenylethanolamine N-methyltransferase (PNMT), histamine N-methyltransferase (HNMT), glycine N-methyltransferase (GNMT), catechol O-methyltransferase (COMT), and guanidinoacetate N-methyltransferase (GAMT). The data generated by this TCP can be leveraged for informed tool molecule development. For example, in the associated publication we identified a chemotype of HNMT-selective inhibitors. Additionally, we identified a putative SMMTase-selective inhibitor with potential as a tool molecule for studying broader methyltransferase biology.
(§5) High-through put screening assays were developed at the National Center for Advancing Translational Science (NCATS) for the enzymes NNMT, PNMT, HNMT, GNMT, COMT, and GAMT. Enzymatic activity was measured as a function of SAM cofactor conversion using the MTase Glo kit (Promega) for all enzymes. All assays were performed in 1536-well format with substrates and SAM concentrations at KM values. Enzyme concentration and assay timing were optimized for 10-20% SAM conversion. Initial screening of 27,574 compounds was done as single-point assays using the highest compound concentration (40 uM). […] These compounds were replated in 11-point dose response and assayed against NNMT, PNMT, HNMT, GNMT, COMT, GAMT, and a counter-assay. The IC50 and efficacy (maximal response) values were determined for each dose-response curve. These values are also accounted for in the area under the curve (AUC) values.
(§6) PROTOCOL TABLE (as described by Inglese J, Shamu CE and Guy RK. 2007)
(§7) SEQUENCE No. (e.g., 1, 2, 3, etc.); […] (e.g., Cells, Incubation, Reagent, etc.); VALUE; DESCRIPTION.
(§8) 1; Reagent; 2 uL; SMMTase Enzyme (2x) in reaction buffer, columns 1- 48.
(§9) 2; Reagent; 1 uL; SAM (4x) in reaction buffer, columns 1-48.
(§10) 3; Controls; 23 nL; DMSO in column 4; sinefungin in DMSO (0 uM - 40 uM) in 7-point 1:2 dilution series (n = 2) in column 2.
(§11) 4; Compounds; 23 nL; Columns 5-48.
(§12) 5; Reagent; 1 uL; Substrate (4x) in reaction buffer, columns 2-48.
(§13) 6; Time; 20-30 min; Incubation.
(§14) 7; Reagent; 1 uL; MTase-Glo reagent (5X), columns 1-48.
(§15) 8; Time; 30 min; Incubation.
(§16) 9; Reagent; 5 uL; MTase-Glo Detection reagent, columns 1-48.
(§17) 10; Time; 30 min; Incubation, luminescence evolution.
(§18) 11; Detection; Luminescence; ViewLux uHTS Microplate Imager (PerkinElmer).
(§19) NOTES (numbers refer to Sequence numbers above)
(§20) 1, 2, 5. White Medium Binding Greiner 1536-well plates (Cat #789175-F, Greiner Bio-One, Monroe, NC); Reaction buffer: 50 mM Tris, pH 8.0, 3 mM MgCl2, 1 mM EDTA, 50 mM NaCl, 1 mM DTT, and 0.1 mg/mL BSA. Evaporation was prevented by covering assay plates with metal lids containing holes to allow gas diffusion.
(§21) 1. Six SMMTase were profiled: HNMT, GNMT, PNMT, COMT, NNMT, GAMT
(§22) 5. The corresponding substrate was used for each enzyme: HNMT - 5.3 uM Histamine; GNMT - >500 uM Glycine; PNMT - 16.2 uM Norephinephrine; COMT - 13.7 uM Norephinephrine; NNMT - 3.8 uM Nicotinamide; GAMT - 2.5 uM Guanidinoacetate.6, 8, 10. Room temperature
(§23) 6. Final reaction conditions: 10 nM COMT, 5 uM SAM, 15 uM norepinephrine, 50 mM Tris, pH 8.0, 3 mM MgCl2, 1 mM EDTA, 50 mM NaCl, 1 mM DTT, and 0.1 mg/mL BSA; refer to tables 2 and S1 for specific timing.
8. […]

Experiment [2] has as its target Guanidinoacetate N-methyltransferase (Homo sapiens) (UniProt Q14353). Particulars: purified enzyme, MTase-Glo SAH luminescence; measured here: GAMT inhibition; at 40 µM; stronger effect = lower value.
Description: as §1, §2, §3, §4, §5, §6, §7, §8, §9, §10, §11, §12, §13, §14, §15, §16, §17, §18, §19, §20, §21, §22, §23
8. […]

The target in experiment [3] is Histamine N-methyltransferase (Homo sapiens) (UniProt P50135). Particulars: purified enzyme, MTase-Glo SAH luminescence; measured here: HNMT inhibition; at 40 µM; stronger effect = lower value.
Description: as §1, §2, §3, §4, §5, §6, §7, §8, §9, §10, §11, §12, §13, §14, §15, §16, §17, §18, §19, §20, §21, §22, §23
8. […]

For experiment [4], the target named is Nicotinamide N-methyltransferase (Homo sapiens) (UniProt P40261). To be noted: purified enzyme, MTase-Glo SAH luminescence; measured here: NNMT inhibition; at 40 µM; stronger effect = lower value.
Description: as §1, §2, §3, §4, §5, §6, §7, §8, §9, §10, §11, §12, §13, §14, §15, §16, §17, §18, §19, §20, §21, §22, §23
8. […]

Experiment [5] concerns the target Phenylethanolamine N-methyltransferase (Homo sapiens) (UniProt P11086). To be noted: purified enzyme, MTase-Glo SAH luminescence; measured here: PNMT inhibition; at 40 µM; stronger effect = lower value.
Description: as §1, §2, §3, §4, §5, §6, §7, §8, §9, §10, §11, §12, §13, §14, §15, §16, §17, §18, §19, §20, §21, §22, §23
8. […]

Some of the results follow. These are further read-outs of the screen, such as a control signal, another cell line or another target. No call is given for them.
% is scaled to controls: 0 for no effect and ±100 for the full control effect.

On to `O=C(NC1CCCC1)C1c2cccn2CC(=O)N1c1cccc(Cl)c1` (centres undefined), for which the activity change, negative = inhibition in experiment [1] stood at 12.5%; in experiment [2], 0%; in experiment [3], 9.06%; in experiment [4], 1.78%; in experiment [5] it was 1.78%.

As to `CN1CCOC[C@H]2CCN(C(=O)c3cccc4[nH]ccc34)C[C@H]21`, the activity change, negative = inhibition in experiment [1] was -4.07%; in experiment [2], -4.63%; in experiment [3], -4.17%; in experiment [4] it was -5.56%; in experiment [5], -4.69%.

As to `COc1ccccc1C(=O)N1CCC(C(=O)N2CCC(c3nc4ncccc4[nH]3)C2)CC1` (centres undefined), the activity change, negative = inhibition in experiment [1] was -3.77%; in experiment [2] it was -8.38%; in experiment [3] it was -2.98%; in experiment [4] it was -15.8%; in experiment [5] it was -11.2%.

On to `Cc1ccc(C(=O)Cn2nc3n(C(C)C)c(=O)c4ccc(C(=O)NC5CCCC5)cc4n3c2=O)c(C)c1`, for which the activity change, negative = inhibition in experiment [1] was -2.03%; in experiment [2] it was -5.5%; in experiment [3], 1.84%; in experiment [4], -4.16%; in experiment [5] it was -4.99%.

In the case of `CC(C)(C)C(=O)NCCNC(=O)c1cccc(-c2ccc(C(F)(F)F)cc2)c1`, the activity change, negative = inhibition is -2% in experiment [1]; 0.332% in experiment [2]; 2.58% in experiment [3]; -11.6% in experiment [4]; 1.45% in experiment [5].

As to `CC1CCN(S(=O)(=O)c2ccc3c(ccn3CCC(=O)NC(C)C)c2)CC1`, the activity change, negative = inhibition in experiment [1] is 1.4%; in experiment [2], 5.26%; in experiment [3], -2.47%; in experiment [4], 0.633%; in experiment [5], -0.702%.

Take `C[C@@]12C[C@]3(O)O[C@H](O1)[C@]1(COC(=O)c4ccccc4)[C@H]3C[C@@]12O[C@@H]1O[C@H](CO)[C@@H](O)[C@H](O)[C@H]1O`: the activity change, negative = inhibition was 6.21% in experiment [1]; 5.2% in experiment [2]; 13.4% in experiment [3]; -7.09% in experiment [4]; 6.3% in experiment [5].

Take `COCCCN1C(=O)c2cc3sccc3n2CC1(C)C(=O)NC1CCCCCCC1` (centres undefined): the activity change, negative = inhibition in experiment [1] was 4.58%; in experiment [2], 0.248%; in experiment [3] it was 8.85%; in experiment [4], 4.08%; in experiment [5] it was 5.81%.

In the case of `CC(C)n1cc(C(=O)NCc2cccnc2Oc2ccc(F)cc2F)cn1`, the activity change, negative = inhibition in experiment [1] is -5.44%; in experiment [2], -7.54%; in experiment [3], -2.19%; in experiment [4] it was -6.87%; in experiment [5], 1.67%.

With `Nc1nc(CC(=O)Nc2ccc(CCNC[C@H](O)c3ccccc3)cc2)cs1`, the figures for the activity change, negative = inhibition in experiment [2], in experiment [4] and in experiment [5] were -3.11%, -33.4% and -21.1%, respectively.

Take `Cc1cc(Nc2cccc(Cl)c2)nc2ccc(NC(=O)Cc3cccc(C(F)(F)F)c3)cc12`: the activity change, negative = inhibition in experiment [2] was -25.9%; in experiment [4], -29.1%; in experiment [5], -5.03%.

In the case of `CC[C@]1(O)C[C@H]2CN(CCc3c([nH]c4ccccc34)[C@@](C(=O)OC)(c3cc4c(cc3OC)N(C=O)[C@H]3[C@@](O)(C(=O)OC)[C@H](OC(C)=O)[C@]5(CC)C=CCN6CC[C@]43[C@@H]65)C2)C1`, the values for the activity change, negative = inhibition in experiment [2], in experiment [4] and in experiment [5] were 2.55%, -3.64% and 3.95%, respectively.

As for `CCC1(C)CC(CC(=O)O)(c2ccccc2OC)CCO1` (centres undefined), the activity change, negative = inhibition stood at 5.46% in experiment [1]; 2.5% in experiment [2]; 4.19% in experiment [3]; 13.4% in experiment [4]; 2.29% in experiment [5].

For the compound `COc1ccc(CCN2C(=O)c3cc4ccccc4n3CC2(C)C(=O)NC2CCCCC2)cc1OC` (centres undefined), the activity change, negative = inhibition in experiment [1] is -4.49%; in experiment [2], 0%; in experiment [3], 5.92%; in experiment [4] it was -20.3%; in experiment [5], 2.43%.

Take `N#Cc1ccc(-c2ccc(S(=O)(=O)Nc3cccc(N)n3)cc2)cc1`: the activity change, negative = inhibition in experiment [1] is -2.59%; in experiment [2], 4.09%; in experiment [3], 10%; in experiment [4] it was -21%; in experiment [5], -9.83%.

Regarding `O=S(=O)(NCc1ccccn1)c1ccc(Br)c2ccccc12`, the activity change, negative = inhibition was -4.6% in experiment [1]; 5.73% in experiment [2]; 4.27% in experiment [3]; -19% in experiment [4]; -3.49% in experiment [5].

`C=C1CC[C@H]2[C@@](C)(CCC[C@@]2(C)C(=O)O)[C@@H]1CCC(C)CCO` (some centres undefined): the activity change, negative = inhibition in experiment [1] was -1.15%; in experiment [2] it was -18.5%; in experiment [3] it was -5.15%; in experiment [4], -35%; in experiment [5], -5.64%.

For the compound `CNC(=O)c1cccn2cncc12`, the activity change, negative = inhibition in experiment [1] was -8.69%; in experiment [2] it was -10.4%; in experiment [3], -2.57%; in experiment [4] it was -22.7%; in experiment [5], -15%.

(Values after PubChem BioAssay AID1745853 (National Center for Advancing Translational Sciences (NCATS), 2022).)
